Among the data in the antibiotic and cytotoxicity screens of Wong et al. (2023) are cytotoxicity call values, retold here.

This is one part of the list.

The experiment relates to HSkMC (human skeletal muscle cells). Briefly: cytotoxicity call (relative viability < 0.9). Particulars: 10 µM.
Turning to `CC(C)NC(=O)Nc1ccc2c(c1)CC(=O)N([C@@H](C)CO)C[C@@H](C)[C@H](CN(C)Cc1ccc3c(c1)OCO3)O2`, the cytotoxicity call is “inactive”.

For `CO[C@@H](CN(C)S(=O)(=O)c1ccc(Cl)cc1)[C@H](C)CN([C@@H](C)CO)S(=O)(=O)c1cccc(Cl)c1`, the cytotoxicity call is “inactive”. For the compound `COc1ccc(CNC(=O)C[C@@H]2C[C@H]3c4cc(NS(=O)(=O)c5ccc(F)cc5)ccc4O[C@H]3[C@H](CO)O2)cc1`, the cytotoxicity call was “inactive”.

Regarding `Cc1ccc(S(=O)(=O)N(C)C[C@@H]2OCCCC[C@H](C)Oc3ccc(NC(=O)Nc4ccc(C(F)(F)F)cc4)cc3C(=O)N([C@@H](C)CO)C[C@@H]2C)cc1`, the cytotoxicity call was “inactive”. On to `C[C@H](CO)N1C[C@H](C)[C@H](CN(C)Cc2ccc(-c3ccccc3)cc2)Oc2ccc(NC(=O)Nc3ccccc3)cc2CC1=O`, for which the cytotoxicity call was “inactive”.

Take `COc1ccc(S(=O)(=O)N(C)C[C@@H]2OCCCC[C@@H](C)Oc3ccc(NC(=O)Nc4ccc(C(F)(F)F)cc4)cc3C(=O)N([C@H](C)CO)C[C@@H]2C)cc1`: the cytotoxicity call is “inactive”.

For `C[C@H](CO)N1C[C@H](C)[C@@H](CN(C)S(=O)(=O)c2ccccc2F)Oc2ncc(Br)cc2C1=O`, the cytotoxicity call was “inactive”. For `C[C@H](CO)N1C[C@H](C)[C@@H](CN(C)C(=O)NC2CCCCC2)OCCCC[C@H](C)Oc2ccc(NC(=O)NC3CCCCC3)cc2C1=O` the value was “inactive”; for `OCCN1C[C@H](O)[C@@H](O)[C@H](O)[C@H]1CO`, “inactive”. For `CC1=C(/C=C/C(C)=C/C=C/C(C)=C\C(=O)O)C(C)(C)CCC1` the value was “inactive”. Turning to `COc1cccc(NC(=O)N(C)C[C@H]2Oc3cc(C#Cc4ccncc4)ccc3S(=O)(=O)N([C@@H](C)CO)C[C@H]2C)c1`, the cytotoxicity call was “inactive”.
